Assay results from a collection of fitness landscapes (doi:10.1016/j.celrep.2020.107928).
In all, about 81,000 sequences were measured (“one-hybrid fitness for binding NBS DNA”: median about -0.1, highest 2% from about 0.36 on). Some of the results follow.

B1: Caulobacter ParB omega fusion; a variant is named by its letters at X, in order, B8GW30 (parent)
chain: MESVVVGEPGMSEGRRGLGRGLSALLGEVDAAPAQAPGEQLGGSREAPIEILQRNPDQPRRTFREEDLEDLSNSIREKGVLQPILVRPSPDTAGEYQIVAGERAWRAAQRAGLKTVPIMVRELDDLAVLEIGIIENVQRADLNVLEEALSYKVLMEKFERTQENIAQTIGKSXSHVANXMRLLXLPDEVQSYLVSGELTAXHARAIAAAADPVALAKQIIEGGLSVRETEALARKAPNLSAGKSKGGRPPRVKDTDTQALESDLSSVLGLDVSIDHRGSTGTLTITYATLEQLDDLCNRLTRGI

Variants of: B1
Test: one-hybrid fitness for binding NBS DNA (the Noc-binding site; scaled: cognate 1, non-cognate 0); higher = stronger binding
Conditions: with NBS DNA site
Procedure, shortened: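 Pre- and post-selection plasmids were Illumina-sequenced, three replicate libraries were pooled, and any variant with under 10 reads was removed. The libraries were Caulobacter ParB with four specificity codons randomised, selected in E. coli USO through a HIS3 reporter whose site is 19 bp from the promoter. Cells grew 48 hours at 37°C on M9 without histidine, with 0.1 mM IPTG and 5 mM 3-AT. Fitness is the log change in variant-to-wild-type read ratio, rescaled against cognate and non-cognate.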

one-hybrid fitness for binding NBS DNA, 0.546:
QRIS

one-hybrid fitness for binding NBS DNA, 0.461:
QRNM

one-hybrid fitness for binding NBS DNA, 0.22:
GRRR

one-hybrid fitness for binding NBS DNA, 0.236:
RIRC

one-hybrid fitness for binding NBS DNA, 0.475:
QKCT

one-hybrid fitness for binding NBS DNA, 0.261:
RTGA

one-hybrid fitness for binding NBS DNA, 0.49:
RKWR

one-hybrid fitness for binding NBS DNA, 0.383:
RLAS

one-hybrid fitness for binding NBS DNA, 0.573:
KRST

one-hybrid fitness for binding NBS DNA, 0.605:
RRPR

one-hybrid fitness for binding NBS DNA, 0.392:
QYRV

one-hybrid fitness for binding NBS DNA, 0.327:
QTNN

one-hybrid fitness for binding NBS DNA, ≤ 0.2:
RKEK
GKEY
LYRL
FWAY
WSAR
LSKR
KYQC
RQPC
PRWS
RFIY
HTHL
THPR
CNAD
VTCV
VQQE
EWQN
TRHP
SDHS
QFGV
NPVT
HRRI
WHWG
NNCS
QGNG
IRPE
GDEP
YCAC
DSST
NKSF
SKNE
GKCS
KIFT
EEAP
RLEV
WGMS
SAQQ
HIMM
NLRM
QAMQ
ELMW
QSSC
LCVC
MARN
YLQM
SFNV
QALG
ISKT
MHYP
TTVR
PQGT
CNIR
PQIY
HITR
RDLY
TQMA
MDRS
GVRK
AYMC
LDSM
MMSM
CKEG
YVDS
QNQV
EKHG
KLCG
PSRA
HRAC
LVPC
RPMA
SHHC
VLPG
TRNG
QCEA
KPLK
TPPM
PKAP
DQAD
KTND
YPCC
NQTI
GIWS
LPVD
PLNT
HWIG
AYIN
MSLW
SCRN
DSMD
TNDR
RLEH
QMMD
RLSN
HHST
DING
ASPI
GDPR
SIRG
AKGR
QLEK
TIYT
VDIS
YYQC
PPHP
FPPI
HSKY
NARD
FQHG
NQKY
PVCT
RFYE
VQFV
TKHC
TCAP
YIPG
DKMR
LGQE
GEIF
RKSV
YLSL
LFLS
FGGT
RSMM
PPMM
NGDS
FFSL
GAHR
VKYL
YLGC
YRFG
NSDC
PLGC
RPVE
KPAA
WTRG
IKAR
EQSL
YSVK
DHSD
LMKN
KFGE
DRWI
MKHS
SCQP
MLTG
MLRW
LDCS
TNIE
TLNP
NSPL
RSYH
VSFQ
KVRE
QWPI
QNCL
GPTE
RHQP
GKVC
WNVS
YEKF
SRQE
QVAY
IIII
SDHG
GCRL
TTET
LMAT
PWNK
PFTR
EISF
FDHT
LMPW
IPIA
YTNF
NSVC
SKHS
PKRY
WSNS
VHCT
NWWT
HDQL
KFKF
CVMK
PKNL
IKHT
MNQA
CATV
DPIK
FYPS
QKSG
RVLL
PYPW
AQKL
VPDI
LNSP
AGKW
VRTI
RHTA
PIAC
RTAH
YDPG
NHQF
LMCM
DYHS
QSMH
HGAW
TYVA
MPSR
PLGN
NMLA
PMRS
WMPV
GNWS
PGNR
TGYM
LTSV
WQDT
HPHT
PVYL
WRLH
NMEG
FYHG
CPPR
VVRE
GVPP
HAHS
THMK
VPPE
DKNH
PSAT
WSHY
QEPG
PASS
HSYR
RNPY
EKTH
CDSR
RVVD
TTKV
PGET
KNLS
VAYS
DFPR
KTCG
VQHR
LGHI
VNLH
VATV
LCEE
PCVN
PSAR
RSGN
DSAD
TKTY
ALYR
QYMH
SVSA
CVGC
PDEM
KPRH
GATW
FEKS
GLPL
LCEG
TFLT
ITSL
NMGE
QKTP
RYML
IICL
PSWS
TMWE
AGFC
SFCW
FTPL
MRCS
AVKK
PTTD
SISV
ACIY
QPAN
PYDM
QLYC
SDTE
YGTT
SEAS
LNQP
MWDV
TSDN
ATAK
EEHA
RVVQ

one-hybrid fitness for binding NBS DNA, 0.237:
QYQW

one-hybrid fitness for binding NBS DNA, 0.423:
RCFT

one-hybrid fitness for binding NBS DNA, 0.364:
QIKY
